# From the supplement of paper PMC8728848
# The list shows a part of the results.
# B1: AAL (Agrocybe aegerita), Q6WY08 (protein)
# chain: MQGVNIYNISAGTSVDLAAPVTTGDIVTFFSSALNLNAGAGNPNNTTLNLFAENGAYLLHIAFRLQENVIIFNSRQPDGPWLVEQRVSDVANQFAGIDGKAMVTVFDHGDKYQVVINEKTVIQYTKQISGLTLSLSYNATEETSIFSTVVEAVTYTGLALEHHHHHH
# Key:
# Assay in all cases: glycan array binding signal (z-score within array); higher = stronger binding
# Conditions in all cases: glycan notation: IUPAC condensed, linker removed
# [1] = target: Glc(b1-6)Glc
# How it was run: (§1)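 Negative Z-scores can be read as non-binding. The Z-score is calculated within each array and then averaged across arrays of one protein sequence at different concentrations or buffers and across linkers. Arrays, 3228 in all, were curated from the Consortium for Functional Glycomics database and kept only where the protein sequence was available.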
# [2] = target: GlcA(b1-3)Gal
# How it was run: as §1
# [3] = target: GlcA(b1-3)GlcNAc
# How it was run: as §1
# [4] = target: GlcA(b1-6)Gal
# How it was run: as §1
# [5] = target: GlcA3S(b1-3)Gal(b1-4)GlcNAc(b1-2)Man
# How it was run: as §1
# [6] = target: GlcA3S(b1-3)Gal(b1-4)GlcNAc(b1-3)Gal(b1-4)Glc
# How it was run: as §1
# [7] = target: GlcNAc(a1-3)Gal(b1-4)GlcNAc
# How it was run: as §1
# [8] = target: GlcNAc(a1-4)Gal(b1-3)GlcNAc
# How it was run: as §1
# [9] = target: GlcNAc(a1-4)Gal(b1-4)GalNAc
# How it was run: as §1
# [10] = target: GlcNAc(a1-4)Gal(b1-4)GlcNAc
# How it was run: as §1
# [11] = target: GlcNAc(a1-4)Gal(b1-4)GlcNAc(b1-3)Gal(b1-4)Glc
# How it was run: as §1
# [12] = target: GlcNAc(a1-4)Gal(b1-4)GlcNAc(b1-3)Gal(b1-4)GlcNAc
# How it was run: as §1
# [13] = target: GlcNAc(a1-4)Gal(b1-4)GlcNAc(b1-3)Gal(b1-4)GlcNAc(b1-3)Gal(b1-4)GlcNAc
# How it was run: as §1
# [14] = target: GlcNAc(a1-4)Gal(b1-4)GlcNAc(b1-3)Gal(b1-4)[Fuc(a1-3)]GlcNAc(b1-3)Gal(b1-4)[Fuc(a1-3)]GlcNAc
# How it was run: as §1
# [15] = target: GlcNAc(a1-6)Gal(b1-4)GlcNAc
# How it was run: as §1
# [16] = target: GlcNAc(b1-2)Gal(b1-3)GalNAc
# How it was run: as §1
# [17] = target: GlcNAc(b1-2)Man(a1-3)[GlcNAc(b1-2)Man(a1-6)]Man(b1-4)GlcNAc(b1-4)GlcNAc
# How it was run: as §1
# [18] = target: GlcNAc(b1-2)Man(a1-3)[GlcNAc(b1-2)Man(a1-6)]Man(b1-4)GlcNAc(b1-4)[Fuc(a1-6)]GlcNAc
# How it was run: as §1
# [19] = target: GlcNAc(b1-2)Man(a1-3)[GlcNAc(b1-4)][GlcNAc(b1-2)Man(a1-6)]Man(b1-4)GlcNAc(b1-4)GlcNAc
# How it was run: as §1
# [20] = target: GlcNAc(b1-2)Man(a1-3)[GlcNAc(b1-4)][GlcNAc(b1-2)Man(a1-6)]Man(b1-4)GlcNAc(b1-4)[Fuc(a1-6)]GlcNAc
# How it was run: as §1
# [21] = target: GlcNAc(b1-2)[GlcNAc(b1-4)]Man(a1-3)[GlcNAc(b1-2)Man(a1-6)]Man(b1-4)GlcNAc(b1-4)GlcNAc
# How it was run: as §1
# [22] = target: GlcNAc(b1-2)[GlcNAc(b1-4)]Man(a1-3)[GlcNAc(b1-4)][GlcNAc(b1-2)Man(a1-6)]Man(b1-4)GlcNAc(b1-4)GlcNAc
# How it was run: as §1
binder,measurement,setting,value
B1,glycan array binding signal (z-score),[1],-0.138
same,glycan array binding signal (z-score),[2],-0.161
same,glycan array binding signal (z-score),[3],-0.151
same,glycan array binding signal (z-score),[4],-0.15
same,glycan array binding signal (z-score),[5],6.26
same,glycan array binding signal (z-score),[6],10.9
same,glycan array binding signal (z-score),[7],-0.136
same,glycan array binding signal (z-score),[8],-0.157
same,glycan array binding signal (z-score),[9],-0.152
same,glycan array binding signal (z-score),[10],-0.114
same,glycan array binding signal (z-score),[11],-0.161
same,glycan array binding signal (z-score),[12],-0.154
same,glycan array binding signal (z-score),[13],-0.146
same,glycan array binding signal (z-score),[14],-0.1
same,glycan array binding signal (z-score),[15],-0.133
same,glycan array binding signal (z-score),[16],-0.152
same,glycan array binding signal (z-score),[17],-0.144
same,glycan array binding signal (z-score),[18],-0.152
same,glycan array binding signal (z-score),[19],-0.151
same,glycan array binding signal (z-score),[20],-0.151
same,glycan array binding signal (z-score),[21],-0.141
same,glycan array binding signal (z-score),[22],-0.14
